# Laboratory results from the supplement of paper PMC8728848.
# This is one part of the list.
# B1: NPA (Narcissus pseudonarcissus), C0HM45 (protein)
# chain: DNILYSGETLSPGEFLNNGRYVFIMQEDCNLVLYDVDKPIWATNTGGLDRRCHLSMQSDGNLVVYSPRNNPIWASNTGGENGNYVCVLQKDRNVVIYGTARWATGTNIH
# Columns and labels:
# Assay in all cases: glycan array binding signal (z-score within array); higher = stronger binding
# Settings in all cases: glycan notation: IUPAC condensed, linker removed
# Fuc(a1-2)Gal = molecular target: Fuc(a1-2)Gal
# Outline: (§1)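 Glycan array binding is given as a within-array Z-score, which can be read as non-binding when negative. The arrays, 3228 of them, came from the Consortium for Functional Glycomics database and were retained only where the protein sequence was available. Z-scores were averaged across arrays of the same protein sequence at different concentrations or buffers and across linkers.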
# Fuc(a1-2)Gal(b1-3)GalNAc = molecular target: Fuc(a1-2)Gal(b1-3)GalNAc
# Outline: as §1
# [1] = molecular target: Fuc(a1-2)Gal(b1-3)GalNAc(a1-3)[Fuc(a1-2)]Gal(b1-4)Glc
# Outline: as §1
# [2] = molecular target: Fuc(a1-2)Gal(b1-3)GalNAc(a1-3)[Fuc(a1-2)]Gal(b1-4)GlcNAc
# Outline: as §1
# [3] = molecular target: Fuc(a1-2)Gal(b1-3)GalNAc(b1-3)Gal
# Outline: as §1
# [4] = molecular target: Fuc(a1-2)Gal(b1-3)GalNAc(b1-3)Gal(a1-4)Gal(b1-4)Glc
# Outline: as §1
# [5] = molecular target: Fuc(a1-2)Gal(b1-3)GalNAc(b1-4)[Neu5Ac(a2-3)]Gal(b1-4)Glc
# Outline: as §1
# Fuc(a1-2)Gal(b1-3)GlcNAc = molecular target: Fuc(a1-2)Gal(b1-3)GlcNAc
# Outline: as §1
# [6] = molecular target: Fuc(a1-2)Gal(b1-3)GlcNAc(b1-2)Man(a1-3)[Fuc(a1-2)Gal(b1-3)GlcNAc(b1-2)Man(a1-6)]Man(b1-4)GlcNAc(b1-4)GlcNAc
# Outline: as §1
# [7] = molecular target: Fuc(a1-2)Gal(b1-3)GlcNAc(b1-2)Man(a1-3)[Fuc(a1-2)Gal(b1-3)GlcNAc(b1-2)Man(a1-6)]Man(b1-4)GlcNAc(b1-4)[Fuc(a1-6)]GlcNAc
# Outline: as §1
# [8] = molecular target: Fuc(a1-2)Gal(b1-3)GlcNAc(b1-3)Gal(b1-4)Glc
# Outline: as §1
# [9] = molecular target: Fuc(a1-2)Gal(b1-3)GlcNAc(b1-3)GalNAc
# Outline: as §1
# [10] = molecular target: Fuc(a1-2)Gal(b1-3)GlcNAc(b1-3)[Fuc(a1-2)Gal(b1-3)GlcNAc(b1-6)]GalNAc
# Outline: as §1
# [11] = molecular target: Fuc(a1-2)Gal(b1-3)GlcNAc(b1-3)[Gal(b1-4)GlcNAc(b1-6)]Gal(b1-4)Glc
# Outline: as §1
# [12] = molecular target: Fuc(a1-2)Gal(b1-3)GlcNAc(b1-3)[Neu5Ac(a2-6)Gal(b1-4)GlcNAc(b1-6)]Gal(b1-4)Glc
# Outline: as §1
# [13] = molecular target: Fuc(a1-2)Gal(b1-3)GlcNAc6S
# Outline: as §1
# [14] = molecular target: Fuc(a1-2)Gal(b1-3)[Fuc(a1-4)]GlcNAc
# Outline: as §1
# [15] = molecular target: Fuc(a1-2)Gal(b1-3)[Fuc(a1-4)]GlcNAc(b1-2)Man(a1-3)[Fuc(a1-2)Gal(b1-3)[Fuc(a1-4)]GlcNAc(b1-2)Man(a1-3)]Man(b1-4)GlcNAc(b1-4)GlcNAc
# Outline: as §1
# [16] = molecular target: Fuc(a1-2)Gal(b1-3)[Fuc(a1-4)]GlcNAc(b1-2)Man(a1-3)[Fuc(a1-2)Gal(b1-3)[Fuc(a1-4)]GlcNAc(b1-2)Man(a1-6)]Man(b1-4)GlcNAc(b1-4)[Fuc(a1-6)]GlcNAc(b1-4)[Fuc(a1-6)]GlcNAc
# Outline: as §1
# [17] = molecular target: Fuc(a1-2)Gal(b1-3)[Fuc(a1-4)]GlcNAc(b1-3)[Fuc(a1-3)[Gal(b1-4)]GlcNAc(b1-6)]Gal(b1-4)Glc
# Outline: as §1
# [18] = molecular target: Fuc(a1-2)Gal(b1-3)[Fuc(a1-4)]GlcNAc(b1-3)[Gal(b1-4)GlcNAc(b1-6)]Gal(b1-4)Glc
# Outline: as §1
# [19] = molecular target: Fuc(a1-2)Gal(b1-4)Fuc(a1-3)]GlcNAc(b1-2)Man(a1-3)[Fuc(a1-2)Gal(b1-4)[Fuc(a1-3)]GlcNAc(b1-2)Man(a1-6)]Man(b1-4)GlcNAc(b1-4)GlcNAc
# Outline: as §1
# Fuc(a1-2)Gal(b1-4)Glc = molecular target: Fuc(a1-2)Gal(b1-4)Glc
# Outline: as §1
# Fuc(a1-2)Gal(b1-4)Glc6S = molecular target: Fuc(a1-2)Gal(b1-4)Glc6S
# Outline: as §1
# Fuc(a1-2)Gal(b1-4)GlcNAc = molecular target: Fuc(a1-2)Gal(b1-4)GlcNAc
# Outline: as §1
# [20] = molecular target: Fuc(a1-2)Gal(b1-4)GlcNAc(b1-2)Man
# Outline: as §1
# [21] = molecular target: Fuc(a1-2)Gal(b1-4)GlcNAc(b1-2)Man(a1-3)[Fuc(a1-2)Gal(b1-4)GlcNAc(b1-2)Man(a1-6)]Man(b1-4)GlcNAc(b1-4)GlcNAc
# Outline: as §1
# [22] = molecular target: Fuc(a1-2)Gal(b1-4)GlcNAc(b1-2)Man(a1-3)[Fuc(a1-2)Gal(b1-4)GlcNAc(b1-2)Man(a1-6)]Man(b1-4)GlcNAc(b1-4)[Fuc(a1-6)]GlcNAc
# Outline: as §1
# [23] = molecular target: Fuc(a1-2)Gal(b1-4)GlcNAc(b1-2)[Fuc(a1-2)Gal(b1-4)GlcNAc(b1-4)]Man(a1-3)[Fuc(a1-2)Gal(b1-4)GlcNAc(b1-2)Man(a1-6)]Man(b1-4)GlcNAc(b1-4)GlcNAc
# Outline: as §1
# [24] = molecular target: Fuc(a1-2)Gal(b1-4)GlcNAc(b1-3)Gal(b1-4)GlcNAc
# Outline: as §1
# [25] = molecular target: Fuc(a1-2)Gal(b1-4)GlcNAc(b1-3)Gal(b1-4)GlcNAc(b1-2)Man(a1-3)[Fuc(a1-2)Gal(b1-4)GlcNAc(b1-3)Gal(b1-4)GlcNAc(b1-2)Man(a1-6)]Man(b1-4)GlcNAc(b1-4)GlcNAc
# Outline: as §1
# [26] = molecular target: Fuc(a1-2)Gal(b1-4)GlcNAc(b1-3)Gal(b1-4)GlcNAc(b1-3)Gal(b1-4)GlcNAc
# Outline: as §1
# [27] = molecular target: Fuc(a1-2)Gal(b1-4)GlcNAc(b1-3)GalNAc
# Outline: as §1
# [28] = molecular target: Fuc(a1-2)Gal(b1-4)GlcNAc(b1-3)[Fuc(a1-2)Gal(b1-4)GlcNAc(b1-6)]GalNAc
# Outline: as §1
# [29] = molecular target: Fuc(a1-2)Gal(b1-4)GlcNAc(b1-3)[Fuc(a1-3)[Gal(b1-4)]GlcNAc(b1-6)]Gal(b1-4)Glc
# Outline: as §1
# [30] = molecular target: Fuc(a1-2)Gal(b1-4)GlcNAc(b1-6)GalNAc
# Outline: as §1
# [31] = molecular target: Fuc(a1-2)Gal(b1-4)GlcNAc6S
# Outline: as §1
# [32] = molecular target: Fuc(a1-2)Gal(b1-4)[Fuc(a1-3)]GlcNAc
# Outline: as §1
# [33] = molecular target: Fuc(a1-2)Gal(b1-4)[Fuc(a1-3)]GlcNAc(b1-2)Man(a1-3)[Fuc(a1-2)Gal(b1-4)[Fuc(a1-3)]GlcNAc(b1-2)Man(a1-6)]Man(b1-4)GlcNAc(b1-4)[Fuc(a1-6)]GlcNAc
# Outline: as §1
# [34] = molecular target: Fuc(a1-2)Gal(b1-4)[Fuc(a1-3)]GlcNAc(b1-2)[Fuc(a1-2)Gal(b1-4)[Fuc(a1-3)]GlcNAc(b1-4)]Man(a1-3)[Fuc(a1-2)Gal(b1-4)[Fuc(a1-3)]GlcNAc(b1-2)Man(a1-6)]Man(b1-4)GlcNAc(b1-4)GlcNAc
# Outline: as §1
# [35] = molecular target: Fuc(a1-2)Gal(b1-4)[Fuc(a1-3)]GlcNAc(b1-3)Gal(b1-4)[Fuc(a1-3)]GlcNAc
# Outline: as §1
# [36] = molecular target: Fuc(a1-2)Gal(b1-4)[Fuc(a1-3)]GlcNAc(b1-3)Gal(b1-4)[Fuc(a1-3)]GlcNAc(b1-3)Gal(b1-4)[Fuc(a1-3)]GlcNAc
# Outline: as §1
# [37] = molecular target: Fuc(a1-2)Gal(b1-4)[Fuc(a1-3)]GlcNAc(b1-3)GalNAc
# Outline: as §1
# [38] = molecular target: Fuc(a1-2)Gal(b1-4)[Fuc(a1-3)]GlcNAc(b1-3)[Neu5Ac(a2-6)Gal(b1-4)GlcNAc(b1-6)]Gal(b1-4)Glc
# Outline: as §1
# [39] = molecular target: Fuc(a1-2)Gal3S(b1-4)GlcNAc
# Outline: as §1
binder,measurement,setting,value
B1,glycan array binding signal (z-score),Fuc(a1-2)Gal,-0.146
same,glycan array binding signal (z-score),Fuc(a1-2)Gal(b1-3)GalNAc,-0.146
same,glycan array binding signal (z-score),[1],-0.144
same,glycan array binding signal (z-score),[2],-0.152
same,glycan array binding signal (z-score),[3],-0.151
same,glycan array binding signal (z-score),[4],-0.151
same,glycan array binding signal (z-score),[5],-0.145
same,glycan array binding signal (z-score),Fuc(a1-2)Gal(b1-3)GlcNAc,-0.154
same,glycan array binding signal (z-score),[6],0.239
same,glycan array binding signal (z-score),[7],0.342
same,glycan array binding signal (z-score),[8],-0.152
same,glycan array binding signal (z-score),[9],-0.151
same,glycan array binding signal (z-score),[10],-0.124
same,glycan array binding signal (z-score),[11],-0.14
same,glycan array binding signal (z-score),[12],-0.142
same,glycan array binding signal (z-score),[13],-0.133
same,glycan array binding signal (z-score),[14],-0.157
same,glycan array binding signal (z-score),[15],-0.059
same,glycan array binding signal (z-score),[16],0.007
same,glycan array binding signal (z-score),[17],-0.15
same,glycan array binding signal (z-score),[18],-0.13
same,glycan array binding signal (z-score),[19],-0.077
same,glycan array binding signal (z-score),Fuc(a1-2)Gal(b1-4)Glc,-0.143
same,glycan array binding signal (z-score),Fuc(a1-2)Gal(b1-4)Glc6S,-0.134
same,glycan array binding signal (z-score),Fuc(a1-2)Gal(b1-4)GlcNAc,-0.15
same,glycan array binding signal (z-score),[20],-0.14
same,glycan array binding signal (z-score),[21],0.11
same,glycan array binding signal (z-score),[22],0.265
same,glycan array binding signal (z-score),[23],0.016
same,glycan array binding signal (z-score),[24],-0.156
same,glycan array binding signal (z-score),[25],-0.103
same,glycan array binding signal (z-score),[26],-0.157
same,glycan array binding signal (z-score),[27],-0.138
same,glycan array binding signal (z-score),[28],-0.137
same,glycan array binding signal (z-score),[29],-0.15
same,glycan array binding signal (z-score),[30],-0.111
same,glycan array binding signal (z-score),[31],-0.149
same,glycan array binding signal (z-score),[32],-0.15
same,glycan array binding signal (z-score),[33],-0.037
same,glycan array binding signal (z-score),[34],-0.063
same,glycan array binding signal (z-score),[35],-0.154
same,glycan array binding signal (z-score),[36],-0.143
same,glycan array binding signal (z-score),[37],-0.09
same,glycan array binding signal (z-score),[38],-0.144
same,glycan array binding signal (z-score),[39],-0.138
